Hit rate of the full screen: of about 420,000 compounds, about 50,000 (12%) were called active. The shares of active, inactive and inconclusive entries below differ from those in the screen. Calls come from the whole dose curve; as a rule, active = well fitted inhibition curve with a large enough effect; inconclusive = small, poorly fitted or top-dose-only effect; inactive = flat fitted curve, though single readings scatter. Potencies of inconclusive entries are left out as doubtful fits.
Assay: qHTS for Inhibitors of human tyrosyl-DNA phosphodiesterase 1 (TDP1): qHTS in cells in presence of CPT; note: nearly all actives have a fitted effect of over 55% in size
Details: chicken DT40 Tdp1-/-;hTDP1 cells + 20 nM CPT, ATP luminescence, 48 h; series mostly up to 46.2 µM
Summary of the method: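 Cell growth measured by CellTiter-Glo luminescence after a minimum 48 h, 37 C compound exposure with 20 nM CPT in Tdp1-knockout DT40 cells stably expressing hTDP1, seeded 400/well; qHTS titration format.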
Potency is the fitted concentration of half-maximal effect; tags give direction and shape of the fitted curve.

Which Potency does the source give for `COc1ccc2c(c1)C(C)=CC(C)(C)N2C(=O)CSc1nnc(-c2ccc(C)cc2)o1` here?
The Potency was inconclusive [inhibitor, single point].

Which Potency does the source give for `CC[C@@H](C)[C@@H]1CN([C@@H](C)CN2CCC[C@H]2CN2C(N)=NC[C@H]2CC(C)C)C(=N)N1CCc1ccc(Cl)c(Cl)c1` here?
Its Potency is inconclusive [inhibitor, single point].

Which Potency does the source give for `Cc1ccc(S(=O)(=O)N2CCC(=O)N([C@H](COCc3cccc(C)c3)C(C)C)CC2)cc1` here?
Its Potency is inconclusive [inhibitor, single point].

With `COc1cc(/C=C(\C#N)c2nc3ccccc3s2)ccc1OCC(=O)Nc1ccccc1` as the molecule, how does the Potency read?
The Potency was active: 5.17 µM.

With `O=C1NC(c2ccccc2)=C(c2ccc3ccccc3n2)C(c2ccccc2)N1` (centres undefined) as the molecule, how does the Potency read?
The Potency was inconclusive [inhibitor, single point].

With `CCS(=O)(=O)c1ccc2oc(Nc3ccccc3Cl)nc2c1` as the molecule, how does the Potency read?
The Potency was inconclusive [inhibitor, full curve].

For `O=C(Oc1ccccc1)c1ccc2c(c1)C(=O)N(Cc1ccncc1)C2=O`, which Potency is on record?
The Potency was “inactive”.

With `O=C(Cc1c(F)cccc1Cl)Nc1cc(S(=O)(=O)N2CCCCC2)ccc1N1CCOCC1` as the molecule, how does the Potency read?
The Potency was inconclusive [inhibitor, single point].

Which Potency does the source give for `CCOC(=O)c1c(NC(=O)COC(=O)CCOc2ccccc2C)sc(C(=O)NC)c1C` here?
Its Potency is active: 23.1 µM.

Which Potency does the source give for `NNC(=S)NC1CCCCC1` here?
Its Potency is active: 6.51 µM.

With `O=C(Nc1cccc(-c2nc3ccccc3[nH]2)c1)c1ccccn1` as the molecule, how does the Potency read?
The Potency was active: 18.4 µM.

For `COc1ccc(C)cc1N(C(=O)c1ccco1)C(C(=O)NC1CCCC1)c1ccc(N2CCOCC2)cc1` (centres undefined), which Potency is on record?
The Potency was “inactive”.

For `Brc1cccc(CNc2nc3ccccc3n2CCN2CCCCC2)c1`, which Potency is on record?
The Potency was inconclusive [inhibitor, single point].

For `COCCn1ccc2c(OCC(=O)Nc3c(C)cc(C)cc3C)cccc2c1=O`, which Potency is on record?
The Potency was “inactive”.

Which Potency does the source give for `Cc1cc(C(=O)OC(C)C(=O)N2CCc3ccccc32)ccc1[N+](=O)[O-]` (centres undefined) here?
Its Potency is inconclusive [inhibitor, single point].

Which Potency does the source give for `CCCSc1oc(-c2ccco2)nc1S(=O)(=O)c1ccc(Br)cc1` here?
Its Potency is inconclusive [inhibitor, single point].

With `CS(=O)(=O)Nc1ccccc1C(=O)NCCSc1ccccc1` as the molecule, how does the Potency read?
The Potency was “inactive”.

With `CSc1ccc(CCNC(=O)c2cccc3c2C(=O)N(C2CCCCC2)C3)cc1` as the molecule, how does the Potency read?
The Potency was inconclusive [inhibitor, single point].

For `N#C/C(=C(/O)COC(=O)c1ccc(O)cc1)c1nc2ccccc2[nH]1`, which Potency is on record?
Its Potency is “inactive”.
